To fix the notation:
B1: glmS ribozyme (parent)
chain: AUAAAAGCGCCAGAACUACAGAAAUGUAGUUGACGAGGAGGAGGUUUAUCGAAUUUUCGGCGGAUGCCUCCAAA

Conditions in all cases: with glucosamine-6-phosphate
The variants in series [1] derive from B1. In words: self-cleavage kobs at 40 uM GlcN6P; higher = faster cleavage; RNA array. The method in brief: (§1)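 Tiles bearing barcoded ribozyme variants, transcribed in situ by E. coli RNA polymerase on sequenced MiSeq chips, were imaged over ~14 h at 37 °C using a hybridised Cy3 probe. Glucosamine-6-phosphate was supplied at 40 μM to 10 mM in HEPES/KCl/Mg(OAc)2 buffer. kobs came from one- or two-exponential decay fits to normalised per-tile medians, and weighted Michaelis–Menten fits then provided kcat and KM.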

In series [2] the parent is B1. In words: self-cleavage kobs at 640 uM GlcN6P; higher = faster cleavage; RNA array. The method in brief: as §1
In series [3] the parent is B1. Nature of the series: self-cleavage kobs at 160 uM GlcN6P; higher = faster cleavage; RNA array. Put shortly:
as §1

Variants of B1 are the subject of series [4]. In words: self-cleavage kobs at 10000 uM GlcN6P; higher = faster cleavage; RNA array. Put shortly:
as §1

In series [5] the parent is B1. In words: self-cleavage kobs at 2500 uM GlcN6P; higher = faster cleavage; RNA array. The method in brief: as §1

± gives the standard error. Variants at the background level are over-represented here.

As to AUAAAGGCGCCAGAACUACAGAAAUGUAGUUGACGAGGAGGAGGUUUAUCGAAUUUUCGGCGGAUCCCUCCAAA, the “self-cleavage kobs at 40 uM GlcN6P” value in series [1] was under 1e-05 s⁻¹. In series [2], the “self-cleavage kobs at 640 uM GlcN6P” value is under 1e-05 s⁻¹. Further, in series [3], the “self-cleavage kobs at 160 uM GlcN6P” value was under 1e-05 s⁻¹. In addition, the “self-cleavage kobs at 10000 uM GlcN6P” value in series [4] was under 1e-05 s⁻¹.

As for AUAAAGGCGCCACAACUACAGAAAUGUAGUUGACGAGGAGGAGGUUUAUCGAAUUUUCGGCGGAUGCCUCCAAA, in series [1], the “self-cleavage kobs at 40 uM GlcN6P” value is under 1e-05 s⁻¹. The “self-cleavage kobs at 640 uM GlcN6P” value in series [2] is under 1e-05 s⁻¹. Moreover, the “self-cleavage kobs at 160 uM GlcN6P” value in series [3] is under 1e-05 s⁻¹. Besides, in series [5], the “self-cleavage kobs at 2500 uM GlcN6P” value is under 1e-05 s⁻¹. Further, in series [4], the “self-cleavage kobs at 10000 uM GlcN6P” value is under 1e-05 s⁻¹.

With AUAAAGGCGCCAGAACUACAGAAAUGUAGUUGACGAGGAGGAGGUUUAUCGAAUUUUUGGCGGAUGCCUCCAAA, the “self-cleavage kobs at 40 uM GlcN6P” value in series [1] is under 1e-05 s⁻¹. Further, in series [2], the “self-cleavage kobs at 640 uM GlcN6P” value is under 1e-05 s⁻¹. Moreover, the “self-cleavage kobs at 160 uM GlcN6P” value in series [3] was under 1e-05 s⁻¹. The “self-cleavage kobs at 2500 uM GlcN6P” value in series [5] is under 1e-05 s⁻¹. In series [4], the “self-cleavage kobs at 10000 uM GlcN6P” value was under 1e-05 s⁻¹.

Take AUAAAGGCGCCAGAACUACAGAAAUGUAGUUGACGAGGAGGAGUUUUAUCGAAUUUUCGUCGGAUGCCUCCAAA: the “self-cleavage kobs at 40 uM GlcN6P” value in series [1] is under 1e-05 s⁻¹. Also, in series [5], the “self-cleavage kobs at 2500 uM GlcN6P” value is under 1e-05 s⁻¹.

With AUAAAGGCGCCAGAACUACAGAAAUGUAGUCGACGAGGAGGAGGUUUAUCGAAUUUUCGGCGGAUGCCUUCAAA, the “self-cleavage kobs at 40 uM GlcN6P” value in series [1] is under 1e-05 s⁻¹. Also, the “self-cleavage kobs at 2500 uM GlcN6P” value in series [5] was under 1e-05 s⁻¹.

As to AUAAAGGCGCCAGAACUACAGAAAUGUAUUUGACGAGGAGGAGGUUUAUCGAAUUUUCGGCGGAUGCCUCCAAA, in series [1], the “self-cleavage kobs at 40 uM GlcN6P” value is under 1e-05 s⁻¹. Moreover, the “self-cleavage kobs at 160 uM GlcN6P” value in series [3] is under 1e-05 s⁻¹.

With AUAAAGGCGCCAGAACUACAGAAAUGUAGUUGACGAGGAGGAGGUUUAUCGAAUUUUCGGCGGAUGAUUCCAAA, in series [1], the “self-cleavage kobs at 40 uM GlcN6P” value was under 1e-05 s⁻¹.

In the case of AUAAAGGCGCCAGAACUACAGAAAUGUAGUUCACGAGGAGGAGGUUUAUCGAAUUUUCGGCGGAUGCCUCCAAA, the “self-cleavage kobs at 40 uM GlcN6P” value in series [1] was under 1e-05 s⁻¹. Further, the “self-cleavage kobs at 640 uM GlcN6P” value in series [2] is under 1e-05 s⁻¹. The “self-cleavage kobs at 160 uM GlcN6P” value in series [3] was under 1e-05 s⁻¹. The “self-cleavage kobs at 10000 uM GlcN6P” value in series [4] is under 1e-05 s⁻¹.

As to AUAAAGGCGCCAGAACUACAGAAAUGUAGUUGACGAGGAGGAGGUUUAUCUAAUUUCCGGCGGAUGCCUCCAAA, the “self-cleavage kobs at 40 uM GlcN6P” value in series [1] is under 1e-05 s⁻¹. Besides, the “self-cleavage kobs at 10000 uM GlcN6P” value in series [4] is under 1e-05 s⁻¹.

As to AUAAAGGCGCCAGAACUACAGAAAUGUAGUUGACGAGGAGCAGGUUUAUCGAAUUUUCGGCGGAUGCCUCCAAA, the “self-cleavage kobs at 40 uM GlcN6P” value in series [1] was under 1e-05 s⁻¹. In addition, in series [2], the “self-cleavage kobs at 640 uM GlcN6P” value was under 1e-05 s⁻¹. The “self-cleavage kobs at 160 uM GlcN6P” value in series [3] is under 1e-05 s⁻¹. For the same variant, the “self-cleavage kobs at 2500 uM GlcN6P” value in series [5] is under 1e-05 s⁻¹. The “self-cleavage kobs at 10000 uM GlcN6P” value in series [4] is under 1e-05 s⁻¹.

Take AUAAAGGCGCCAGAACUACAGAAAUGUAGUUGACGAGGAGUAGGUUUAUCGAAUUUUCGGCGGAUGCCUCCAAA: the “self-cleavage kobs at 40 uM GlcN6P” value in series [1] is under 1e-05 s⁻¹. In addition, the “self-cleavage kobs at 640 uM GlcN6P” value in series [2] was under 1e-05 s⁻¹. Further, the “self-cleavage kobs at 160 uM GlcN6P” value in series [3] is under 1e-05 s⁻¹.

For AUAAAGGCGCCAGAACUACAGAAAUGUAGUUGACGAGGAGGAGGUUUAUCGAAUUUUCGGCAGAUGCCUCCAAA, the “self-cleavage kobs at 40 uM GlcN6P” value in series [1] was under 1e-05 s⁻¹. Besides, in series [2], the “self-cleavage kobs at 640 uM GlcN6P” value is under 1e-05 s⁻¹. The “self-cleavage kobs at 160 uM GlcN6P” value in series [3] is under 1e-05 s⁻¹. The “self-cleavage kobs at 2500 uM GlcN6P” value in series [5] was under 1e-05 s⁻¹. In addition, in series [4], the “self-cleavage kobs at 10000 uM GlcN6P” value is under 1e-05 s⁻¹.

Consider AUAAAGGCGCCAGAACUACAGAAAUGUAGUUGACGAGGAGGAGGUUUAUCGAAUUUUCGGCUGAUGCCUCCAAA, for which, in series [1], the “self-cleavage kobs at 40 uM GlcN6P” value was under 1e-05 s⁻¹. The “self-cleavage kobs at 640 uM GlcN6P” value in series [2] is under 1e-05 s⁻¹. For the same variant, the “self-cleavage kobs at 160 uM GlcN6P” value in series [3] is under 1e-05 s⁻¹. Also, the “self-cleavage kobs at 2500 uM GlcN6P” value in series [5] is under 1e-05 s⁻¹. In addition, the “self-cleavage kobs at 10000 uM GlcN6P” value in series [4] was under 1e-05 s⁻¹.

For the variant AUAAAGGCGCCAGAACUACAGAAAUGUAGUUGACGAGGAGGAGGUUUAUCGAAUUCUCGGCGGAUGCCUCCAAA, in series [1], the “self-cleavage kobs at 40 uM GlcN6P” value is under 1e-05 s⁻¹. For the same variant, the “self-cleavage kobs at 640 uM GlcN6P” value in series [2] is under 1e-05 s⁻¹. Besides, in series [3], the “self-cleavage kobs at 160 uM GlcN6P” value is under 1e-05 s⁻¹. For the same variant, the “self-cleavage kobs at 10000 uM GlcN6P” value in series [4] is under 1e-05 s⁻¹.

As to AUAAAGGCGCCAGAACUACAGAAAUGUAGCUGACGAGGAGGAGGUUUAUCGAAUUUUCGGCGGAUGCCUACAAA, the “self-cleavage kobs at 40 uM GlcN6P” value in series [1] is under 1e-05 s⁻¹. In series [4], the “self-cleavage kobs at 10000 uM GlcN6P” value is under 1e-05 s⁻¹.

Consider AUAAAGGCGCCAGAACUACAGAAAUGUAGUUUACGAGGAGGAGGUUUACCGAAUUUUCGGCGGAUGCCUCCAAA, for which the “self-cleavage kobs at 40 uM GlcN6P” value in series [1] is under 1e-05 s⁻¹. In addition, in series [2], the “self-cleavage kobs at 640 uM GlcN6P” value was under 1e-05 s⁻¹. The “self-cleavage kobs at 160 uM GlcN6P” value in series [3] was under 1e-05 s⁻¹. Also, in series [5], the “self-cleavage kobs at 2500 uM GlcN6P” value is under 1e-05 s⁻¹. For the same variant, in series [4], the “self-cleavage kobs at 10000 uM GlcN6P” value is under 1e-05 s⁻¹.

For the variant AUAAAGGCGCCAGAACUACAGAAAUGUAGUUGACGAGGAGGAGGUUUAUCGAAUUUUCGGCGGAUGGCUCCAAA, the “self-cleavage kobs at 40 uM GlcN6P” value in series [1] was under 1e-05 s⁻¹. For the same variant, in series [3], the “self-cleavage kobs at 160 uM GlcN6P” value is under 1e-05 s⁻¹. Besides, the “self-cleavage kobs at 2500 uM GlcN6P” value in series [5] was under 1e-05 s⁻¹.

As to AUAAAGACGCCAGAACUACAGAAAUGUAGUUGGUGAGGAGGAGGUUUCUCGAAUUUUCGGCGGAUGCCUCCAAA, the “self-cleavage kobs at 40 uM GlcN6P” value in series [1] is under 1e-05 s⁻¹.

As for AUAAAGGCGCCAGAACUACAGAAAUGUAGUUGACGAGGAGGAGGUUUAUCGAAUUUUCGGCGGAAGCCUCCAAA, in series [1], the “self-cleavage kobs at 40 uM GlcN6P” value is under 1e-05 s⁻¹. In series [5], the “self-cleavage kobs at 2500 uM GlcN6P” value was 4.41e-05 ± 1.2e-05 s⁻¹. In addition, the “self-cleavage kobs at 10000 uM GlcN6P” value in series [4] came out at 6.05e-05 ± 9.8e-06 s⁻¹.

Regarding AUAAAGGCGCCAGAACUACAGAAAUGUAGUUGACGAGGAGGAGGUUUAUCGAAUUUUCGGCGGAUGCCUCUAAA, the “self-cleavage kobs at 40 uM GlcN6P” value in series [1] was under 1e-05 s⁻¹.

As for AUAAAGGCUCGAGAACUACAGAAAUGUAGUUGACGAGGAGGAGGUUUAUCGAAUUUUCGGCGGAUGCUUCCAAA, the “self-cleavage kobs at 40 uM GlcN6P” value in series [1] was under 1e-05 s⁻¹.

Regarding AUAAAGGCGCCAGAACUACAGAAAUGUAGUUGACGAGGAGGAGGUUUAUCGAAUCUUCGGCGGAUGCCUCCAAA, in series [1], the “self-cleavage kobs at 40 uM GlcN6P” value is under 1e-05 s⁻¹.

For AUAAAGGCGCCAUAACUACAGAAAUGUAGUUGACAAGGAGGAGGUUUAUUGACUUUUCGGCGGAUGCCUCCAAA, the “self-cleavage kobs at 40 uM GlcN6P” value in series [1] is under 1e-05 s⁻¹.

Turning to AUAAAGCCGCCAGAACUACAGAAAUGUAGUUGACGAGGAGGAGGUUUAUCGAAUUUUCGGCGGAUGCCUCCAAA, in series [1], the “self-cleavage kobs at 40 uM GlcN6P” value is under 1e-05 s⁻¹.

Turning to AUAAAGGCGCCAGAACUACAGAAAUGUAGUUGACGAGGAGGAGGUUUAUCGAAUUUUCGGCGGAUGCAUCCAAA, the “self-cleavage kobs at 40 uM GlcN6P” value in series [1] was under 1e-05 s⁻¹. The “self-cleavage kobs at 640 uM GlcN6P” value in series [2] is under 1e-05 s⁻¹. Moreover, the “self-cleavage kobs at 160 uM GlcN6P” value in series [3] was under 1e-05 s⁻¹. For the same variant, the “self-cleavage kobs at 2500 uM GlcN6P” value in series [5] was under 1e-05 s⁻¹. Besides, the “self-cleavage kobs at 10000 uM GlcN6P” value in series [4] is under 1e-05 s⁻¹.

For AUAAAGGCGCCAGAACUACAGAAAUGUAGUUUACGAGGAGGAGGUGUAUCGAAUUUUCGGCGGAUGCCUCCAAA, the “self-cleavage kobs at 40 uM GlcN6P” value in series [1] is under 1e-05 s⁻¹. Moreover, in series [4], the “self-cleavage kobs at 10000 uM GlcN6P” value is under 1e-05 s⁻¹.

For the origin of these results see the supplement of paper PMC7125110.
